In the supplement of paper PMC10126150:
Values marked as one replicate rest on one cluster of the flow cell; about a third of the high ones do not repeat.

System: ATP
Test: switch fluorescence ratio, 500 uM ATP over buffer (Cy3 cluster intensity, sum of 5 cycles each) (fold (ratio)); higher = stronger signal-on switching upon ATP binding; sequences stand for … in TCGTCGGCAGCGTCAGATGTGTATAAGAGACAGTTTTTTTTTTTTTTTTTTTTTTTTT…TC
Details: aptamer strand: ATP DNA aptamer (quencher-CACCTGGGGGAGTATTGCGGAGGAAGG + anchor), 100 nM annealed; ATP concentration: 500 uM; one replicate
In short: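 Values give the fluorescence ratio for each switch-domain sequence, averaged from per-cluster ratios of summed target-cycle to summed buffer-cycle Cy3 intensity. The Cy3-labelled switching-strand clusters sat on a modified Illumina MiSeq flow-cell, were annealed to 100 nM quencher-labelled ATP aptamer, and were imaged in selection buffer, then after 15 min with 500 uM ATP at 22 °C. Five cycles ran with NaOH stripping and re-annealing between them, and clusters outside 100-1000 RFU were excluded.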
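Note: ATP exposure 15 min at 22 °C before imaging.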

Sequence: CATCAGTAA
- switch fluorescence ratio: 1.38

Sequence: ATCTGCACCC
- switch fluorescence ratio: 1.2

Sequence: TTCCATCAAT
- switch fluorescence ratio: 1.04

Sequence: CCTGCTCCAC
- switch fluorescence ratio: 1.91

Sequence: AAATACCTGG
- switch fluorescence ratio: 1.09

Sequence: CTATTGCCTG
- switch fluorescence ratio: 0.942

Sequence: CACGCCCACA
- switch fluorescence ratio: 1.46

Sequence: GTCAGCCTTG
- switch fluorescence ratio: 0.963

Sequence: AACCGATGGT
- switch fluorescence ratio: 0.972

Sequence: ATCCGGAGTT
- switch fluorescence ratio: 1.28

Sequence: GGTAGATGAG
- switch fluorescence ratio: 0.973

Sequence: AGCACGGTCA
- switch fluorescence ratio: 1.02

Sequence: TGCAAGACGT
- switch fluorescence ratio: 1.93

Sequence: TCCACATTAT
- switch fluorescence ratio: 1.07

Sequence: GTATTAGGGA
- switch fluorescence ratio: 1.03

Sequence: CGATGCACAG
- switch fluorescence ratio: 1.13

Sequence: TAGCAGGCGT
- switch fluorescence ratio: 1.02

Sequence: GGGCTAGATA
- switch fluorescence ratio: 0.943

Sequence: CGAGCTCGTT
- switch fluorescence ratio: 0.999

Sequence: GAGGAAACA
- switch fluorescence ratio: 1.01

Sequence: CGAGGCTTG
- switch fluorescence ratio: 1.05

Sequence: AAATGTGACA
- switch fluorescence ratio: 1

Sequence: AGAGTGGCGT
- switch fluorescence ratio: 0.952

Sequence: ACTGGAAAGG
- switch fluorescence ratio: 1.02

Sequence: CTGAGTCATT
- switch fluorescence ratio: 1

Sequence: CAGGCGGGAA
- switch fluorescence ratio: 0.986

Sequence: GGGCTGATGG
- switch fluorescence ratio: 1.02

Sequence: AGGCGCGCTT
- switch fluorescence ratio: 0.977

Sequence: TATTTCGTTA
- switch fluorescence ratio: 0.959

Sequence: GGTAGCATAT
- switch fluorescence ratio: 1.15

Sequence: TACGTAGAG
- switch fluorescence ratio: 1.08

Sequence: GGCTGTGCGG
- switch fluorescence ratio: 0.99

Sequence: TCCATTCAAA
- switch fluorescence ratio: 0.999

Sequence: CATGCATGGG
- switch fluorescence ratio: 1.02

Sequence: TTCCAAATTA
- switch fluorescence ratio: 1.01

Sequence: TGGTACGTTT
- switch fluorescence ratio: 0.962

Sequence: GGAATAGACA
- switch fluorescence ratio: 0.986

Sequence: GTTTCCTGTG
- switch fluorescence ratio: 1.42

Sequence: AGGCGACCGT
- switch fluorescence ratio: 1.01

Sequence: GCTAATGGGT
- switch fluorescence ratio: 0.981

Sequence: GCGCCGAGGC
- switch fluorescence ratio: 1.04

Sequence: TGGATCAGCG
- switch fluorescence ratio: 1.01

Sequence: ATGATTTGCC
- switch fluorescence ratio: 0.997

Sequence: CTAAATTTTG
- switch fluorescence ratio: 1.02

Sequence: GGCTGCAAAC
- switch fluorescence ratio: 5.19

Sequence: ATTATATCTT
- switch fluorescence ratio: 1

Sequence: TGGTTTGCG
- switch fluorescence ratio: 1

Sequence: GGTTCCACGT
- switch fluorescence ratio: 1.04

Sequence: AGGAGAAAGG
- switch fluorescence ratio: 1.05

Sequence: CGCTTGTCTT
- switch fluorescence ratio: 1.01

Sequence: ATTAACGATA
- switch fluorescence ratio: 1.1

Sequence: TATAGGATCC
- switch fluorescence ratio: 0.986

Sequence: ATTCGAAAGG
- switch fluorescence ratio: 0.972

Sequence: GGCTGTCTAT
- switch fluorescence ratio: 0.993

Sequence: GCTCGGGAAG
- switch fluorescence ratio: 0.99

Sequence: GCTTCAATTT
- switch fluorescence ratio: 0.993

Sequence: CCGTAGTATG
- switch fluorescence ratio: 2.37

Sequence: GATAGAACTA
- switch fluorescence ratio: 1.03

Sequence: ACTTTTATTA
- switch fluorescence ratio: 0.978

Sequence: TTAGTGGAGT
- switch fluorescence ratio: 0.953

Sequence: AGGCATGTAG
- switch fluorescence ratio: 0.987

Sequence: CACTATCGCG
- switch fluorescence ratio: 1.03

Sequence: TAAGAGTGTA
- switch fluorescence ratio: 1.01

Sequence: AAGAGCAGCG
- switch fluorescence ratio: 1.01

Sequence: CATTAATGG
- switch fluorescence ratio: 0.966

Sequence: CAATTTCTCG
- switch fluorescence ratio: 0.995

Sequence: GCTATCGCTT
- switch fluorescence ratio: 1.03

Sequence: GGTAGTTCGC
- switch fluorescence ratio: 1

Sequence: CGAAAGGGGT
- switch fluorescence ratio: 1

Sequence: CTAATTATAC
- switch fluorescence ratio: 1.29

Sequence: CATACATCAT
- switch fluorescence ratio: 1.01

Sequence: TATCCTTCCT
- switch fluorescence ratio: 3.01

Sequence: TTCGCGCCGC
- switch fluorescence ratio: 1.02

Sequence: AGAATTAGA
- switch fluorescence ratio: 0.964

Sequence: CCGTCGTCTT
- switch fluorescence ratio: 1.06

Sequence: CGACGACGAC
- switch fluorescence ratio: 5.28

Sequence: TGGAGTTGAC
- switch fluorescence ratio: 1.01

Sequence: TTAAATCCCT
- switch fluorescence ratio: 1.27

Sequence: GTATTGTGAC
- switch fluorescence ratio: 0.983

Sequence: CAGCCGCTTG
- switch fluorescence ratio: 1.34

Sequence: CTGAGGTATA
- switch fluorescence ratio: 0.966

Sequence: CTGCTGAGTC
- switch fluorescence ratio: 1

Sequence: CATTTGTCAG
- switch fluorescence ratio: 0.97

Sequence: CCGGCACCGT
- switch fluorescence ratio: 1.05

Sequence: CCGGGAGCGG
- switch fluorescence ratio: 1.07

Sequence: CCAGGGGTTC
- switch fluorescence ratio: 1.27

Sequence: CGAGCCAGAA
- switch fluorescence ratio: 0.995

Sequence: TGATGCTGGA
- switch fluorescence ratio: 0.983

Sequence: CTATGGACCG
- switch fluorescence ratio: 0.976

Sequence: TGCGTACTTG
- switch fluorescence ratio: 0.952

Sequence: GAATACATCG
- switch fluorescence ratio: 1.01

Sequence: AGAACTTATA
- switch fluorescence ratio: 1.04

Sequence: TGGAAGTCGA
- switch fluorescence ratio: 0.95

Sequence: AGCTATCATA
- switch fluorescence ratio: 0.967

Sequence: GTCTTTTTGA
- switch fluorescence ratio: 0.982

Sequence: CTGAGAGGAT
- switch fluorescence ratio: 0.983

Sequence: TATTAGGACT
- switch fluorescence ratio: 1.01

Sequence: AACTGCGCTA
- switch fluorescence ratio: 1.9

Sequence: TTAGTACTTT
- switch fluorescence ratio: 1.02

Sequence: CACGA
- switch fluorescence ratio: 1.03

Sequence: ATAAGCTGTT
- switch fluorescence ratio: 0.959
